From PubChem BioAssay AID485281 (National Center for Advancing Translational Sciences (NCATS), 2010)
“And” between values parts separate entries of the source, which are not always exact repeats. Equal entries are not always repeated. In all, about 350,000 compounds went through this assay and about 260 (0.074%) were called active. Inconclusive means that the source gave no clear call. Such entries were picked first, then a sample of the others. Calls come from the whole dose curve; as a rule, active = well fitted inhibition curve with a large enough effect; inconclusive = small, poorly fitted or top-dose-only effect; inactive = no such curve, though single readings can be large or run the other way. A potency beside an inconclusive call is a rough fit, not a confirmed value.

Target: Ferritin light chain (Equus caballus) (UniProt P02791)
Chain of UniProt P02791 (P02791 whole entry, looked up): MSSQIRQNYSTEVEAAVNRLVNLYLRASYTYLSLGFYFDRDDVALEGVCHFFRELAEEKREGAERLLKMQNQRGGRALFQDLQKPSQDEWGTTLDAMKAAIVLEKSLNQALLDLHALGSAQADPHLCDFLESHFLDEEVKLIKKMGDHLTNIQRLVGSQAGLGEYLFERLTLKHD
Assay: qHTS Assay for Identification of Novel General Anesthetics; note: nearly all actives have a fitted effect of over 20% in size
Conditions: apoferritin/1-aminoanthracene competitive binding, fluorescence; series mostly up to 77.5 µM
Procedure, shortened: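 Concentration-response curves derived by four-parameter Hill fitting of normalized fluorescence, where compounds displaced 1-AMA from 10 uM horse apoferritin following a brief 10 min room-temperature incubation; propofol titration acted as positive control.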
Potency is the fitted concentration of half-maximal effect; tags give direction and shape of the fitted curve.

Structure (SMILES) | Potency
CCCOc1cc(N(CC)CC)ccc1/C=C(/C#N)c1nc2ccc(C)cc2[nH]1 | inconclusive: 14.1 µM [inhibitor, full curve, poor fit]
CCN1CCN(C2=C(NS(=O)(=O)c3ccc(Br)cc3)C(=O)c3ccccc3C2=O)CC1 | inconclusive: 31.6 µM [inhibitor, partial curve]
COc1cccc(CNc2ccc(F)c([N+](=O)[O-])c2)c1O | inconclusive: 28.2 µM [inhibitor, partial curve]
COc1ccccc1NC(=O)CN1C(=O)NC2(CCCCCCC2)C1=O | inconclusive: 14.1 µM [inhibitor, partial curve]
CCCSc1cc(N)cc([N+](=O)[O-])c1 | inconclusive: 35.5 µM [inhibitor, partial curve]
CCN(CC)c1nc2c(S(=O)(=O)c3ccccc3)nnn2c2ccc(Cl)cc12 | inconclusive: 7.08 µM [inhibitor, partial curve]
CCOc1ccccc1CNC(=O)c1nc(-c2ccc(Cl)cc2)n2c1CCCCC2 | inactive
Nc1nnc(CSCc2ccccc2)s1 | inconclusive: 17.8 µM [inhibitor, partial curve]
C=CCOc1ccccc1CN1CCC(Oc2ccc(C(=O)N3CCCCC3)cc2)CC1 | inconclusive: 28.2 µM [inhibitor, partial curve]
COc1ccc(S(=O)(=O)Nc2cccc(S(=O)(=O)N3CCCCCC3)c2)cc1 | inactive
COc1cccc(OCc2cc(C(=O)N3CCN(c4ccccc4O)CC3)no2)c1 | inconclusive: 28.2 µM [inhibitor, partial curve, poor fit]
CCC(=O)Nc1ccc(S(=O)(=O)N2CCOCC2)cc1 | inconclusive: 50.1 µM [inhibitor, single point]
Cc1sc2nc(COC(=O)c3cccc(OC(F)F)c3)[nH]c(=O)c2c1C | inconclusive: 10 µM [inhibitor, full curve, poor fit]
C=C(C)CSc1nc2nc(C)c(Br)cc2[nH]1 | inconclusive: 35.5 µM [inhibitor, partial curve]
COc1ccccc1N/C(=N/S(=O)(=O)c1ccc(C)cc1)c1ccc(Cl)cc1 | inconclusive: 17.8 µM [inhibitor, partial curve]
Nc1nnc(SCC(=O)OCC(=O)NC23CC4CC(CC(C4)C2)C3)s1 | inconclusive: 22.4 µM [inhibitor, partial curve]
Cc1cc(C(=O)OCC(=O)NC(C)c2ccccc2)c(C)o1 (stereo unspecified) | inconclusive: 17.8 µM [inhibitor, partial curve]
CCN(CC)S(=O)(=O)c1cccc(C(=O)OCC(=O)Nc2ccccc2OC(F)F)c1 | inconclusive: 22.4 µM [inhibitor, partial curve]
Cc1ncoc1C(=O)NC1CCCc2c1cnn2-c1ccc(C(C)(C)C)cc1 (stereo unspecified) | inconclusive: 28.2 µM [inhibitor, single point]
O=C(CSc1nnc(-c2ccccc2)c(-c2ccccc2)n1)NCCc1ccccc1 | inconclusive: 10 µM [inhibitor, partial curve]
CC1Cc2ccccc2N1C(=O)COc1ccc2c(c1)OCO2 (stereo unspecified) | inconclusive: 17.8 µM [inhibitor, partial curve]
O=C(Cn1cc2c(n1)CCCC2)Nc1cc(-c2cccc(Cl)c2)no1 | inconclusive: 31.6 µM [inhibitor, single point]

Structure (SMILES) | Potency
CCOc1cc(CNc2ccc(N3CCCCC3)cc2)cc(Br)c1OCC(=O)NC(C)(C)C | inconclusive: 56.2 µM [inhibitor, single point]
Cc1onc(-c2ccccc2)c1C(=O)Nc1ncc([N+](=O)[O-])s1 | inactive
CCOc1ccc2ccccc2c1C1NC(=O)N(C)C(C)=C1C(=O)OCCOC (stereo unspecified) | inactive
O=C1c2ccccc2C(=O)N1CCSc1ccccc1 | inconclusive: 39.8 µM [inhibitor, partial curve, poor fit]
O=C(NC1CCSc2ccccc21)c1cccc([N+](=O)[O-])c1 (stereo unspecified) | inconclusive: 22.4 µM [inhibitor, partial curve]
Cc1oc(-c2ccc(Cl)cc2)nc1CS(=O)CC(=O)NCc1cccs1 (stereo unspecified) | inactive
COc1ccc(CCC(=O)NCC23CC4CC(CC(C4)C2)C3)cc1 | inconclusive: 56.2 µM [inhibitor, single point]
CCc1ccccc1NC(=O)CN1C(=O)C2CCCN2c2ccc(S(=O)(=O)N(CC)CC)cc21 (stereo unspecified) | inconclusive: 5.01 µM [inhibitor, partial curve]
CCCNC(=O)c1noc2c1CCc1ccccc1-2 | inactive
NC(=O)C1CCN(C(=O)c2ccc3c(=O)n(Cc4cccc(Br)c4)c(=S)[nH]c3c2)CC1 | inconclusive: 35.5 µM [inhibitor, single point]
O=C(NCCC1=CCCCC1)C(=O)NCC1OCCCN1S(=O)(=O)c1ccc(F)cc1 (stereo unspecified) | inconclusive: 39.8 µM [inhibitor, partial curve]
O=C(COc1ccccc1[N+](=O)[O-])N/N=C/c1ccccn1 | inactive
CC(NC(=O)c1ccco1)C(c1cccs1)N1CCN(c2ccc(F)cc2)CC1 (stereo unspecified) | inconclusive: 17.8 µM [inhibitor, partial curve]
Cc1cc(C)n(-c2ccc(C(=O)Nc3ccc(S(=O)(=O)NCc4ccco4)cc3)cc2)n1 | inconclusive: 7.94 µM [inhibitor, full curve]
Cc1c(C(=O)N2CCCc3ccccc32)oc2ccc(S(=O)(=O)N3CCOCC3)cc12 | inconclusive: 31.6 µM [inhibitor, partial curve]
CCOC(=O)c1[nH]c(C)c(CCC(=O)Nc2ccccc2OCC)c1C | inactive
O=C(O)c1cc(=O)n(Cc2ccccc2)c(=O)[nH]1 | inactive
C=C(C)COc1ccc(-c2nc(N)ncc2-c2ccc(Cl)cc2)c(O)c1 | inconclusive: 39.8 µM [inhibitor, single point]
COc1ccc(NC(=O)N2CCCCCC2)cc1OC | inconclusive: 15.8 µM [inhibitor, partial curve]
O=C1OC(c2ccc3c(c2)OCO3)N(C(=O)c2ccc(Cl)c(Cl)c2)c2ccccc21 (stereo unspecified) | inconclusive: 31.6 µM [inhibitor, single point]
Clc1ccc(-c2nnc3c4ccccc4nc(N4CCOCC4)n23)cc1Cl | inconclusive: 28.2 µM [inhibitor, partial curve]
O=C(Nc1ncc(Cc2cccc(Cl)c2)s1)c1cccs1 | inconclusive: 20 µM [inhibitor, partial curve]

Structure (SMILES) | Potency
O=C(CSc1nc2ccccc2s1)NC(=O)NCc1ccco1 | inconclusive: 12.6 µM [inhibitor, partial curve]
CC1CCN(c2nc(-c3cccnc3)nc3scc(-c4ccccc4)c23)CC1 | inactive
COc1cccc(NCc2cc(=O)oc3cc(C)c(C(C)C)cc23)c1 | inconclusive: 25.1 µM [inhibitor, partial curve]
CCc1nn2c(=O)cc(COC(=O)c3cccc(NC(=O)c4ccccc4C)c3)nc2s1 | inactive
Cc1cc(N2CCOCC2)nc(SCC(=O)c2ccc(Cl)cc2)n1 | inconclusive: 44.7 µM [inhibitor, partial curve]
COc1cccc(N=Nc2ccc3cccnc3c2O)c1 | inactive
C(=C\c1ccccc1)/CSc1nnc(-c2cccnc2)o1 | inconclusive: 22.4 µM [inhibitor, partial curve]
Cc1ccc(SCC(=O)NC(=O)NCCC(C)C)c(C)c1 | inconclusive: 25.1 µM [inhibitor, partial curve]
COC(=O)C1=C(C)N(CCc2ccc(OC)cc2)C(=O)C1 | inconclusive: 50.1 µM [inhibitor, single point]
CC(=O)Oc1cccc(N2C(=O)C3C4C=CC(C4)C3C2=O)c1 (stereo unspecified) | inconclusive: 31.6 µM [inhibitor, partial curve]
O=c1[nH]cnc2nc(-c3ccccc3)c(-c3ccccc3)nc12 | inactive
O=C(O)c1cccc(CN2C(=O)S/C(=C/c3cccc([N+](=O)[O-])c3)C2=O)c1 | inactive
CC(C)NCC1CCc2cc(CO)c([N+](=O)[O-])cc2N1 (stereo unspecified) | inactive
Nn1c(SCC(=O)NC2CCS(=O)(=O)C2)nnc1-c1cccs1 (stereo unspecified) | inactive
COC(=O)C1=C(CN2CCCc3ccccc32)NC(=O)NC1c1ccc(F)cc1 (stereo unspecified) | inconclusive: 20 µM [inhibitor, partial curve, poor fit]
C=CCN(CC=C)S(=O)(=O)c1ccc2nsnc2c1 | inconclusive: 56.2 µM [inhibitor, single point]
COC/C=C/C1=CC2=CC(=O)C(C)(OC(=O)c3cnc4ccccc4n3)C(=O)C2=CN1CCCOC(C)C (stereo unspecified) | inconclusive: 28.2 µM [inhibitor, single point]
CCOc1cc(NC(=O)c2ccccc2C(=O)O)c(OCC)cc1NC(=O)c1ccccc1F | inconclusive: 44.7 µM [inhibitor, single point]
O=C(Cn1nnc2ccccc2c1=O)N1CCCc2ccccc21 | inconclusive: 44.7 µM [inhibitor, partial curve]
CCn1cc(C(=O)NCCc2ccc(OC)c(OC)c2)c(=O)c2cc(S(=O)(=O)N3CCOCC3)ccc21 | inconclusive: 22.4 µM [inhibitor, single point] and inconclusive: 20 µM [inhibitor, partial curve]
CC(C)CCCCCCNC(=S)Nc1ccc(S(=O)(=O)N2CCOCC2)cc1 | inconclusive: 50.1 µM [inhibitor, single point]
O=C(NC(=S)NCCc1ccccc1)c1ccccc1 | inconclusive: 44.7 µM [inhibitor, partial curve]
